Results from PubChem BioAssay AID1671194 (National Center for Advancing Translational Sciences (NCATS), 2021).
Screen size: about 140,000 compounds; about 240 (0.17%) were called active. Inconclusive results, whose numbers are uncertain, are shown with a selection of clear calls. Calls come from the whole dose curve; as a rule, active = well fitted inhibition curve with a large enough effect; inconclusive = small, poorly fitted or top-dose-only effect; inactive = no such curve, though single readings can be large or run the other way. Potencies of inconclusive entries are doubtful fits and often do not repeat.

Test: Primary qHTS assay for inhibitors of alpha-synuclein gene (SNCA) expression; note: nearly all actives have a fitted effect of over 45% in size;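 for activity change, negative = inhibition: plate controls were DMSO cells for no effect and cell-free wells for full effect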
Details: HEK-293 SNCA-luciferase knock-in, luminescence, 24 h; activity change, negative = inhibition: at 57.2 µM (top of the series) unless noted
Potency is the fitted concentration of half-maximal effect; tags give direction and shape of the fitted curve.

Q: For `Cc1nc2c(c(=O)[nH]1)CCN(C(=O)CCc1n[nH]c3c1CCCC3)C2`, which “activity change, negative = inhibition” value is on record?
A: inactive: -22.7%

Q: With `COc1ccc(OC)c(NC(=O)c2cc(=O)c3c(C)cc(C)cc3o2)c1` as the compound, how does the Potency read?
A: inconclusive: 5.62 µM [inhibitor, partial curve]

Q: For `O=C([C@@H]1C[C@H](F)CN1S(=O)(=O)c1ccc(Cl)s1)N1CCCCC1`, which “activity change, negative = inhibition” value is on record?
A: inactive: -20.6%

Q: With `Cc1cccc2nnc(N3CCN(C(=O)c4ccco4)CC3)n12` as the compound, how does the Potency read?
A: inconclusive: 8.91 µM [inhibitor, single point]

Q: Which Potency does the source give for `CCN1C(=O)C2(CCN(S(=O)(=O)c3ccc(C(F)(F)F)cc3)CC2)c2ccccc21` here?
A: inconclusive: 39.8 µM [inhibitor, partial curve, poor fit]

Q: With `COC(=O)[C@@H]1Cc2c([nH]c3ccccc23)[C@H]2C[C@@H](NCCN3CCOCC3)C[C@@H](c3ccc(C(F)(F)F)cc3)N21` as the compound, how does the Potency read?
A: inconclusive: 14.1 µM [inhibitor, partial curve, poor fit]

Q: For `CC1CCN(C(=O)c2ccc(-c3ccc(N4CCSCC4)nc3)cc2)CC1`, which Potency is on record?
A: inconclusive: 8.91 µM [inhibitor, full curve, poor fit]

Q: Which Potency does the source give for `O=C(c1cc(-c2ccccc2)n[nH]1)N1CCC(N2CC3CC(C2)[C@H]2CCCC(=O)N2C3)CC1` (stereo partly specified) here?
A: inconclusive: 7.08 µM [inhibitor, full curve, poor fit]

Q: Which “activity change, negative = inhibition” value does the source give for `O=C(Nc1ccccc1)N[C@H]1CO[C@H]2[C@@H]1OC[C@H]2OC(=O)Nc1ccccc1` here?
A: inactive: 66.5% [at 87.6 µM]

Q: Which “activity change, negative = inhibition” value does the source give for `CCn1cnnc1CC1CCCN(C(=O)NCc2ccccc2)C1` (stereo unspecified) here?
A: inactive: -6.13%

Q: For `COc1ccc(CN2CCc3c(c(=O)n4ncc(C(=O)N5CCN(c6ccc(F)cc6)CC5)c4n3C)C2)cc1`, which Potency is on record?
A: inconclusive: 7.08 µM [inhibitor, single point]

Q: With `CC(=O)N1CCc2c(sc3c2c(=O)n(-c2ccc(C)cc2)c(=O)n3Cc2c(F)cccc2Cl)C1` as the compound, how does the Potency read?
A: inconclusive: 1.78 µM [inhibitor, single point]

Q: For `COc1ccc(CNC(=O)c2cc(-c3ccc(OC)cc3)nc3n[nH]c(-c4cccc([N+](=O)[O-])c4)c23)cc1`, which Potency is on record?
A: inconclusive: 39.8 µM [inhibitor, partial curve, poor fit]

Q: Which “activity change, negative = inhibition” value does the source give for `O=C(Cc1c[nH]c2ncc(-c3cccc(OC(F)(F)F)c3)cc12)NCc1cccnc1` here?
A: inactive: -11.5% [at 87.6 µM]

Q: Which Potency does the source give for `O=C(NCCc1ccccc1)C1CCCCN1Cc1ccc(-c2ccsc2)cc1` (stereo unspecified) here?
A: inconclusive: 39.8 µM [inhibitor, single point]

Q: For `O=C(CSc1nc(-c2cccc(F)c2)[nH]c1-c1ccccc1)Nc1ccc2c(c1)OCCO2`, which Potency is on record?
A: inconclusive: 39.8 µM [inhibitor, single point]
